Measured values reported in PMC9975078 (Molecular cell, 2023).

Target: His-RPA1 (recombinant RPA1^WT) (human, UniProt P27694)
Assay: pull-down

Chain of UniProt P27694 (P27694 whole entry): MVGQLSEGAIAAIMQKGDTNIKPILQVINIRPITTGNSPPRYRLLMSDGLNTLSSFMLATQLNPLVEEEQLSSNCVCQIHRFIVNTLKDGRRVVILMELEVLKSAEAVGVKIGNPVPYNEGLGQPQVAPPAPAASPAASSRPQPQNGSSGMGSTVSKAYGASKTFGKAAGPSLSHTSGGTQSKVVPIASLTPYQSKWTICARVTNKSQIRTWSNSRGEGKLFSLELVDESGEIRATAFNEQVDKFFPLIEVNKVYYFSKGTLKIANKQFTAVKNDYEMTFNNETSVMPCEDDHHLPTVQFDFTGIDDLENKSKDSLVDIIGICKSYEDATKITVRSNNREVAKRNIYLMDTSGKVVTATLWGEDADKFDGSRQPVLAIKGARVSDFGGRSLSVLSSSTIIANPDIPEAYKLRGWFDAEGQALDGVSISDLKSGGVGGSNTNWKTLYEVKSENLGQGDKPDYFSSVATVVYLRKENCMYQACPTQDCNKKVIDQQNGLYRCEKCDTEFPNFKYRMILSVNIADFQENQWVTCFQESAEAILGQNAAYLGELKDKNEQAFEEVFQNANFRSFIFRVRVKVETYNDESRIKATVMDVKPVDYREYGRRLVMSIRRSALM

binding result: binds
B1: SUMO1 protein (natural protein)
chain: not shown
